This is an account of results in article PMC6522510 (Nature Communications, 2019).

The subject of one test is U937. Further details: species or system AML cell lines (8); Primary HTS, single concentration about 10 uM, Cell Titer Glo viability; log10 luminescence, per cent inhibition relative to cycloheximide control. Particulars: 72 h, relative to cycloheximide control, log10 luminescence; inhibitor.
Test [1] concerns CHRF288-11. Further details: species or system AML cell lines (8); Primary HTS, single concentration about 10 uM, Cell Titer Glo viability; log10 luminescence, per cent inhibition relative to cycloheximide control. The following applies: 72 h, relative to cycloheximide control, log10 luminescence; inhibitor.
For test [2], the system named is CMK. Further details: species or system AML cell lines (8); Primary HTS, single concentration about 10 uM, Cell Titer Glo viability; log10 luminescence, per cent inhibition relative to cycloheximide control. Particulars: 72 h, relative to cycloheximide control, log10 luminescence; inhibitor.
The subject of a further test is MOLM-13. Further details: species or system AML cell lines (8); Primary HTS, single concentration about 10 uM, Cell Titer Glo viability; log10 luminescence, per cent inhibition relative to cycloheximide control. Particulars: 72 h, relative to cycloheximide control, log10 luminescence; inhibitor.
A further test deals with ML-2. Further details: species or system AML cell lines (8); Primary HTS, single concentration about 10 uM, Cell Titer Glo viability; log10 luminescence, per cent inhibition relative to cycloheximide control. Particulars: 72 h, relative to cycloheximide control, log10 luminescence; inhibitor.
The subject of the next test is MV4-11. Further details: species or system AML cell lines (8); Primary HTS, single concentration about 10 uM, Cell Titer Glo viability; log10 luminescence, per cent inhibition relative to cycloheximide control. The following applies: 72 h, relative to cycloheximide control, log10 luminescence; inhibitor.
Test [3] deals with M07e. Further details: species or system AML cell lines (8); Primary HTS, single concentration about 10 uM, Cell Titer Glo viability; log10 luminescence, per cent inhibition relative to cycloheximide control. The following applies: 72 h, relative to cycloheximide control, log10 luminescence; inhibitor.
The subject of test [4] is CMS. Further details: species or system AML cell lines (8); Primary HTS, single concentration about 10 uM, Cell Titer Glo viability; log10 luminescence, per cent inhibition relative to cycloheximide control. Particulars: 72 h, relative to cycloheximide control, log10 luminescence; inhibitor.
For test [5], the system named is CMS. In kind it is cell-based. Particulars: Homo sapiens; 72 h, Cell Titer Glo. (In general: Cellular ATP, detected with luciferase, serves as a proxy for viable cell number.)
Test [6] has as its system M07e. The experiment in a line: cells.
Test [7] has as its system CHRF288-11. In kind it is cell-based. The following applies: Homo sapiens; 72 h, Cell Titer Glo.
In test [8] the test system is CMK. Kind of test: cells.
For the next test, the system named is M-MOK. The experiment in a line: cells.
The subject of test [9] is M07e. The experiment in a line: Secondary dose-response HTS, Cell Titer Glo. The following applies: Homo sapiens, M-07e, secondary high-throughput screen, read-out: average effective concentration, M07e. It is filed as cell-based.
Test [10] has as its system CMS. The experiment in a line: Secondary dose-response HTS, Cell Titer Glo. In kind it is cell-based. Particulars: Homo sapiens, secondary high-throughput screen, read-out: average effective concentration, CMS.
A further test has as its system CMY. The experiment in a line: cells.
Another test relates to WSU. The experiment in a line: cells. The following applies: Homo sapiens, 72 h, read-out: IC50 (WSU).

This is a selection; strong and weak results do not stand in their true shares.

As for `O=C1Nc2ccc(-c3cccnc3)cc2/C1=C/c1ccc[nH]1` [JAK3 INHIBITOR VI], in the test with U937, the U937 %inh was determined as 52.14%. Also, the CHRF288-11 %inh in the test on CHRF288-11 [1] amounted to 69.76%. The CMK %inh with CMK [2] was determined as 84.43%. Moreover, the MOLM-13 %inh in the test on MOLM-13 worked out at 96.06%. Also, in the test on ML-2, the ML-2 %inh is 14.48%. Also, in the test on MV4-11, the MV4-11 %inh was 82.56%. The molecule further displayed an M07e %inh with M07e [3] of 37.38%. Also, in the test on CMS [4], the CMS %inh was 49.94%.

Molecule `Clc1ccc(CO/N=C(\Cn2ccnc2)c2ccc(Cl)cc2Cl)c(Cl)c1` [SJ000286195-3, OXICONAZOLE NITRATE] came in with a U937 %inh in the test on U937 of 10.82%. Also, the CHRF288-11 %inh in the test on CHRF288-11 [1] stood at 48.33%. Moreover, in the test on CMK [2], the CMK %inh came out at 42.15%. Further, the MOLM-13 %inh in the test on MOLM-13 stood at 34.31%. Besides, the ML-2 %inh in the test with ML-2 is 6.956%. Further, in the test with MV4-11, the MV4-11 %inh is 37.71%. This molecule also yielded an M07e %inh in the test on M07e [3] of 9.846%. Moreover, in the test on CMS [4], the CMS %inh is on record as 10.52%.

What is called IC50 is the point on the concentration scale where inhibition reaches its midpoint. As for `C[C@@H]1CCN(C(=O)CC#N)C[C@@H]1N(C)c1ncnc2[nH]ccc12` [Tofacitinib, tofacitinib], the IC50 in the test with CMS [5] was 375 nM; in the test on M07e [6], 202 nM; with CHRF288-11 [7] it was 1200 nM; in the test on CMK [8], 201 nM; in the test with M-MOK it was 48 nM; in the test on CMY it was 71 nM. In addition, the 50% inhibitory concentration (IC50) in the test with WSU worked out at 42 nM. Further, the EC50 is 3300 nM with M07e [9] and 420 nM with CMS [10].
